The source of these data is ChEMBL document CHEMBL4888484, “Replenishing the malaria drug discovery pipeline: Screening and hit evaluation of the MMV Hit Generation Library 1 (HGL1) against asexual blood stage Plasmodium falciparum ,using a nano luciferase reporter read-out” (2022).

In the assay the test system is Plasmodium falciparum. In words: Primary screen in NF54 nanoGlo assay, in single point, at 2uM, 72h; a lower Z score goes with more inhibition. The class given is functional, Erythrocyte. The following applies: timepoint 72 hour.

Where “and” joins values, the source holds several entries; their conditions need not be identical. Equal values may be shown once. In all, about 150,000 compounds went through this assay and about 540 (0.36%) showed an effect of 50% or more. The list shows a part of the results.

Turning to `Cc1cc(C#N)ccc1S(=O)(=O)OCC(F)(F)F`, the “% Inhibition” value is 9% and the Z score was -0.98.

On to `CC(C)c1ccc(-c2nc(N3CCN(Cc4ccccc4)CC3)nc3nn(C)c(N)c23)cc1`, for which the “% Inhibition” value is -6% and the Z score is 0.66.

`Cc1cnc(C(=O)N2CC3C(C2)C3(C)C)cn1` (stereo not given): the “% Inhibition” value is given as -11% and the Z score came to 1.09.

In the case of `Cc1cnn(CCCNC(=O)C[C@H]2COCCN2Cc2ccc(C)o2)c1`, the “% Inhibition” value is reported as -20% and the Z score is 2.24.

Regarding `C[C@H](C#N)CNC(=O)NCCOc1cccc(Br)c1`, the “% Inhibition” value is reported as -4% and the Z score worked out at 0.4.

As to `Cc1cc(=O)c2cccc(C(=O)N[C@@H]3[C@@H]4CCO[C@@H]4[C@H]3N(C)C)c2[nH]1`, the “% Inhibition” value is -9% and the Z score was found to be 1.87.

Turning to `CNC(=O)OC[C@H]1CCCCN1C(=O)c1[nH]nc2c1CCCC2`, the “% Inhibition” value amounted to 1% and the Z score is -0.08.

As to `CCNC(=O)N1CCN([C@H](C(=O)N2CCc3ccccc3C2)C2CCCC2)CC1`, the “% Inhibition” value is -6% and the Z score is listed as 0.95.

`O=C1O[C@H](C(=O)NC2(c3nccs3)CCCC2)Cc2ccccc21`: the “% Inhibition” value is -10% and the Z score was 1.06.

Turning to `CC1(C)CCN(C(=O)c2cccnc2C(N)=O)C[C@@H]1c1ccccc1`, the “% Inhibition” value was -7% and the Z score amounted to 1.39.

Consider `O=C(C(=O)N1CCN(Cc2ccc3c(c2)OCO3)CC1)N1CCCCC1`, for which the “% Inhibition” value is on record as -7% and the Z score was 0.89.

`CCCn1c(C)nnc1CN[C@@H](C)c1cc(C)sc1C`: the “% Inhibition” value was -4% and the Z score is recorded as 0.49.

With `Cc1cc(=O)[nH]c(CCNC2CCN(c3ccc(-c4cccc(F)c4)cc3)CC2)n1`, the “% Inhibition” value is -14% and the Z score came to 1.29.

Turning to `COC[C@H]1C[C@@H](NC(=O)c2ccccc2)[C@H](O)[C@@H]1O`, the “% Inhibition” value turned out to be 15% and the Z score was -1.7.

As for `CCN1C(=O)[C@H]2[C@@H](C1=O)[C@@](CO)(C(=O)OC)N[C@H]2c1ccc(F)cc1OC`, the “% Inhibition” value is recorded as -8% and the Z score came to 1.32.

Turning to `COc1ccc(-c2nc(CN=C(N)Nc3ccc(C)cc3)n[nH]2)cc1`, the “% Inhibition” value is -1% and the Z score worked out at 0.15.

`CC(C)CC(=O)Nc1nnc(CCCOc2ccccc2)s1`: the “% Inhibition” value was -8% and the Z score came to 1.54.

In the case of `COc1ccc(NC(=O)c2sc3ncnc(N4CCc5ccccc5C4)c3c2C)cc1Cl`, the “% Inhibition” value came out at 29% and the Z score is given as -3.37.

For the compound `CCOc1ccc(-c2c[nH]c(-c3nccn3CC)n2)cc1OCC`, the “% Inhibition” value is 8% and the Z score was -1.44.

Turning to `CCc1cccc(OC2CN(Cc3cc(C#N)n(C)c3C)C2)c1`, the “% Inhibition” value is -19% and the Z score was 3.53.

Turning to `COc1ccc(OC2CCN(C3CCCC3)CC2)c(C(=O)N2CCCC[C@@H]2CCCO)c1`, the “% Inhibition” value is given as -8% and the Z score was 1.11.

Consider `Cc1cccc(C)c1NC(=O)CN1C(=O)NC2(CCOCC2)C1=O`, for which the “% Inhibition” value amounted to 5% and the Z score is -0.94.

As to `Cc1nc2ccccc2n1[C@H]1CCN(C(=O)c2ccc(C(F)(F)F)cc2)C1`, the “% Inhibition” value is given as -9% and the Z score is reported as 1.18.

Regarding `Cc1oncc1C(=O)NCCn1ccnc1-c1ncccn1`, the “% Inhibition” value was -15% and the Z score came to 1.97.

As for `Cn1nc(-c2nnc(-c3ccc(F)cc3)o2)c2c1CCN(S(=O)(=O)c1cccc3nsnc13)C2`, the “% Inhibition” value is -13% and the Z score was 1.53.

In the case of `CCOC1CC(NC(=O)c2ccc3nncn3c2)C12CCCC2` (stereo not given), the “% Inhibition” value is on record as -17% and the Z score is given as 2.11.

In the case of `OCc1cn([C@H]2CCCN(CCC3CCCCCC3)C2)nn1`, the “% Inhibition” value is -1% and the Z score turned out to be 0.14.

Turning to `CS(=O)(=O)N1CCC[C@@H]1CNc1ccc(C#N)cn1`, the “% Inhibition” value came out at 0% and the Z score was -0.03.

As for `O=C(Cc1ccccn1)N1CC[C@H](C2CCCCC2)C1`, the “% Inhibition” value was 7% and the Z score is on record as -0.92.

With `CN(CC(CC1CC1)NC(=O)OC(C)(C)C)[C@@H]1COC[C@H]1O` (stereo not given in full), the “% Inhibition” value came to 8% and the Z score was -1.06.

Consider `O=C(c1ccc2c(c1)CN(C(=O)c1ccccn1)CCO2)N1CCOCC1`, for which the “% Inhibition” value was -1% and the Z score was 0.2.

For `O=S(=O)(Nc1ccccc1-c1ccc2ccccc2n1)c1ccc(Cl)cc1`, the “% Inhibition” value is given as 8% and the Z score is -0.97.

Regarding `COc1ccc(CCOc2ccc([C@H]3CC(O)=Nc4c3c(C)nn4-c3ncnc4[nH]cnc34)cc2)cc1`, the “% Inhibition” value is listed as -6% and the Z score is given as 0.79.

For the compound `C#Cc1cccc(NC(=O)N(CCO)CCCC)c1`, the “% Inhibition” value came out at 2% and the Z score is on record as -0.24.

As to `CC1CN(C(=O)c2cc3nccc(-c4ccc(F)cc4)n3n2)CC(C)O1` (stereo not given), the “% Inhibition” value is recorded as -9% and the Z score turned out to be 1.4.

For `Nc1ccc2c(c1)OCCOCCOc1cc(N)ccc1OCCO2`, the “% Inhibition” value was -12% and the Z score turned out to be 2.32.

With `O=C(NCc1ccc(-c2nc3ccccc3o2)cc1)c1ccccc1Cl`, the “% Inhibition” value is reported as -13% and the Z score was found to be 1.98.

In the case of `Cc1cccc(-c2noc(-c3sccc3S(=O)(=O)N(C)c3ccc(C)c(C)c3)n2)c1`, the “% Inhibition” value was -6% and the Z score was found to be 0.79.

On to `O=C(NCCN1CCCCC1)[C@H]1CCCN(c2nnc3ccc(C(F)(F)F)cn23)C1`, for which the “% Inhibition” value is recorded as -20% and the Z score is given as 3.45.

In the case of `O=C(c1coc(COc2cccc(F)c2)n1)N1CCCCCC1`, the “% Inhibition” value is -24% and the Z score is 2.15.

Turning to `O=c1c(S(=O)(=O)N2CCCC2)cccn1Cc1noc(Cc2ccccc2)n1`, the “% Inhibition” value is reported as -1% and the Z score worked out at 0.15.

`O=C(Cn1ccnc1C(O)c1ccccc1)NCC1CCCO1` (stereo not given): the “% Inhibition” value was -6% and the Z score was determined as 1.09.

With `COCCNCCOCCOc1ccccc1`, the “% Inhibition” value was -14% and the Z score is recorded as 2.2.

As to `CCc1c(C)noc1NC(=O)C[C@H]1C(=O)N(C)C(=O)N1C`, the “% Inhibition” value is on record as -6% and the Z score amounted to 1.12.

For the compound `CCN1CCCC[C@@H]1Cn1cnc(-c2ccccc2)c1-c1ccc(C#CCO)s1`, the “% Inhibition” value is recorded as -10% and the Z score was 1.86.

Turning to `Cc1cccc(O[C@H]2CCN(C(=O)Cn3cnc4ccccc4c3=O)C2)n1`, the “% Inhibition” value is recorded as -14% and the Z score is on record as 2.61.

For the compound `COc1nn(C)cc1C(=O)N1CCC(N2c3ccccc3N(C)S2(=O)=O)CC1`, the “% Inhibition” value came out at 4% and the Z score is -0.5.

Consider `O=C(c1cc(=O)c(OCc2ccccc2)c[nH]1)N1CCCC1`, for which, where the note is “2 µM”, the “% Inhibition” value is -12% and -2%.

For `CCn1ncc(C)c1NC(=O)N1CCC(F)(F)C[C@@H]1C`, the “% Inhibition” value was -8% and the Z score amounted to 1.21.

`Cc1ccc(-c2cc(O)c3c(c2)CN(CCn2ccnc2C)CCO3)cc1`: the “% Inhibition” value is given as -11% and the Z score is listed as 1.04.

`COCC(C)(C)C(=O)Nc1ccncc1Br`: the “% Inhibition” value was 1% and the Z score is -0.11.

As to `Cc1cc(C)n(Cc2nc(-c3ccoc3)no2)n1`, the “% Inhibition” value is -13% and the Z score was 1.28.

For `COc1ccc(Nc2nnc(-c3ccc(C)cc3)c3ccccc23)cc1C(=O)N1CCCCC1`, the “% Inhibition” value amounted to 17% and the Z score is given as -2.16.
